Data published in PubChem BioAssay AID485364 (National Center for Advancing Translational Sciences (NCATS), 2010).
The campaign covered roughly 360,000 compounds. About 11,000 (3.1%) were called active. The inconclusive results got no clear call from the source; some entries with a clear call stand among them for comparison. Calls come from the whole dose curve; as a rule, active = well fitted inhibition curve with a large enough effect; inconclusive = small, poorly fitted or top-dose-only effect; inactive = no such curve, though single readings can be large or run the other way. No potency is given beside an inconclusive call; the fits are too rough.

molecular target: Schistosoma mansoni thioredoxin glutathione reductase (TGR) (UniProt Q962Y6); assay: qHTS Assay for the Inhibitors of Schistosoma Mansoni Peroxiredoxins; conditions: purified TGR, DTNB reduction, TNB absorbance 405 nm; series mostly up to 114 µM; note: nearly all actives have a fitted effect of over 60% in size
In short: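 Kinetic colorimetric format: TGR-catalysed, NADPH-driven DTNB reduction monitored via TNB absorbance. Enzyme dispensed at 20 nM; compound exposure 15 min at room temperature before reaction start.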
Potency is the fitted concentration of half-maximal effect; tags give direction and shape of the fitted curve.

**Q.** Which Potency does the source give for Cc1ccc(-c2nn(-c3ccccc3)cc2CN(Cc2ccccc2)C(=O)CCC(=O)O)o1 here?
**A.** active: 7.94 µM

**Q.** For COc1ccc(NC2CC(=O)N(C(C)C)C2=O)cc1 (configuration not stated), which Potency is on record?
**A.** active: 7.94 µM

**Q.** For CC(C(=O)OCc1nnc(-c2ccccc2)o1)N1C(=O)C2CCCCC2C1=O (configuration not stated), which Potency is on record?
**A.** inactive

**Q.** With COc1ccc(CNC(=O)COc2ccc(OC)cc2)cc1 as the compound, how does the Potency read?
**A.** inactive

**Q.** COc1ccc(CCNC(=O)CN(c2ccccc2OC)S(=O)(=O)c2ccc(C)cc2)cc1 was tested. Which Potency did it give?
**A.** inactive

**Q.** Which Potency does the source give for Cc1cccc(NC(=O)CN2C(=O)N/C(=C/c3cc(C)n(C)c3C)C2=O)c1 here?
**A.** active: 25.1 µM

**Q.** For C=CCSc1nnc2n(CCc3ccccc3)c(=O)c3c4c(sc3n12)COC(C)(C)C4, which Potency is on record?
**A.** inconclusive [inhibitor, full curve, poor fit]

**Q.** For COc1ccc2c(c1)c(C(=O)CN1CCN(c3ccccc3)CC1)c(C)n2C, which Potency is on record?
**A.** inconclusive [inhibitor, partial curve]

**Q.** For CCOC(=O)/C=C/C(=O)OCC(=O)Nc1cccc(Cl)c1Cl, which Potency is on record?
**A.** inconclusive [inhibitor, full curve]

**Q.** COC(=O)c1c(C(=O)OC)c2oc3ccccc3n2c1Cl was tested. Which Potency did it give?
**A.** inconclusive [inhibitor, partial curve]

**Q.** With CCCC1(C(=O)O)NC(c2ccc(OC)cc2O)C2C(=O)N(c3ccc(OC)cc3)C(=O)C21 (configuration not stated) as the compound, how does the Potency read?
**A.** inactive

**Q.** How did the Potency turn out when O=C(NCc1ccc(Cl)cc1)C(=O)NCC(c1cccs1)S(=O)(=O)c1ccc(Cl)cc1 (configuration not stated) was run?
**A.** inconclusive [inhibitor, partial curve]

**Q.** For O=C(Nc1ccc(Cl)cc1)Nc1cccnc1, which Potency is on record?
**A.** inactive

**Q.** How did the Potency turn out when Cc1cccc(N2CCN(C(=O)c3ccc4nc(-c5ccco5)c(-c5ccco5)nc4c3)CC2C)c1 (configuration not stated) was run?
**A.** inconclusive [inhibitor, full curve, poor fit]

**Q.** Which Potency does the source give for Cc1onc(-c2ccccc2Cl)c1C(=O)Nc1ccc(CN2CCCC2)cc1 here?
**A.** active: 79.4 µM

**Q.** O=c1[nH]c2cc3c(cc2cc1CN(Cc1ccc2c(c1)OCO2)Cc1nnnn1CC1CCCO1)OCO3 (configuration not stated) was tested. Which Potency did it give?
**A.** inactive

**Q.** How did the Potency turn out when O=C(Nc1ccccc1F)c1nc(S(=O)(=O)Cc2ccccc2F)ncc1Cl was run?
**A.** active: 2.82 µM

**Q.** For O=[N+]([O-])c1ccc2[nH]c3nc4ccccc4nc3c2c1, which Potency is on record?
**A.** inactive

**Q.** How did the Potency turn out when CCN(CC)c1nn2c(=O)c(C(=O)NCc3ccc(OC)cc3OC)cnc2s1 was run?
**A.** inconclusive [inhibitor, single point]

**Q.** With CCOC(=O)c1cnc2cc(-c3ccc(Br)cc3)nn2c1C as the compound, how does the Potency read?
**A.** inactive

**Q.** How did the Potency turn out when O=C(NCC(c1cccs1)S(=O)(=O)c1cccs1)c1ccccc1F (configuration not stated) was run?
**A.** inconclusive [inhibitor, full curve, poor fit]

**Q.** CC(=O)N1c2ccc(S(=O)(=O)NCC3CCC(C(=O)NC(C)(C)C)CC3)cc2CC1C (configuration not stated) was tested. Which Potency did it give?
**A.** inactive

**Q.** Which Potency does the source give for O=C(C[n+]1cc(Br)cc(Br)c1)c1ccc(Cl)cc1 here?
**A.** inconclusive [inhibitor, partial curve]

**Q.** Which Potency does the source give for Cc1cc2n(n1)CCC(=O)N2Cc1ccc(C(=O)Nc2cc(Cl)ccc2C)cc1 here?
**A.** inactive

**Q.** For CCN1CCN(Cc2ccc(NC(=O)c3ccc(C)c(/C=C/c4cnc(Nc5cc(N6CCNCC6)nc(C)n5)cn4)c3)cc2C(F)(F)F)CC1, which Potency is on record?
**A.** inconclusive [inhibitor, partial curve]

**Q.** How did the Potency turn out when COc1ccc(C(=O)NN2C(=O)C3C4C=CC(O4)C3C2=O)cc1 (configuration not stated) was run?
**A.** active: 17.8 µM

**Q.** How did the Potency turn out when CN(Cc1ccccc1)C(=O)c1[nH]cnc1C(=O)NCCCCCNC(=O)OC(C)(C)C was run?
**A.** inconclusive [inhibitor, partial curve]

**Q.** COc1ccc(CC(=O)NCC(c2cccs2)S(=O)(=O)c2ccc(F)c(C)c2)cc1 (configuration not stated) was tested. Which Potency did it give?
**A.** inactive

**Q.** With O=C(/C=C/c1ccco1)N(Cc1cccc(Br)c1)C1CCS(=O)(=O)C1 (configuration not stated) as the compound, how does the Potency read?
**A.** active: 3.16 µM

**Q.** With COc1ccc2cc(-c3ccsc3)ncc2c1 as the compound, how does the Potency read?
**A.** active: 39.8 µM

**Q.** How did the Potency turn out when CC(=O)c1ccc(OCc2cc(C(=O)N3CCCCC3c3cccnc3)no2)cc1 (configuration not stated) was run?
**A.** inconclusive [inhibitor, partial curve, poor fit]

**Q.** With CCOC(=O)c1[nH]c(=O)[nH]c1CSc1nc(C)cc(C)n1 as the compound, how does the Potency read?
**A.** active: 35.5 µM

**Q.** CCCC(c1nnnn1C(C)(C)CC)N(Cc1ccco1)Cc1cc2ccc(OC)cc2[nH]c1=O (configuration not stated) was tested. Which Potency did it give?
**A.** inconclusive [inhibitor, partial curve]

**Q.** With CCOc1cc(NC(=O)CCl)c(OCC)cc1NC(=O)CCl as the compound, how does the Potency read?
**A.** inconclusive [inhibitor, full curve, poor fit]

**Q.** With COc1cccc(CNC(=O)C(=O)NCC(c2cccs2)S(=O)(=O)c2ccccc2)c1 (configuration not stated) as the compound, how does the Potency read?
**A.** inconclusive [inhibitor, partial curve]

**Q.** O=C(c1ccc(-c2ccccc2Cl)o1)N1CCN(S(=O)(=O)c2cccs2)CC1 was tested. Which Potency did it give?
**A.** inconclusive [inhibitor, partial curve]

**Q.** How did the Potency turn out when COc1ccc(CN2CCNC(=O)C2CC(=O)N(C)Cc2ccon2)c(OC)c1 (configuration not stated) was run?
**A.** inconclusive [inhibitor, partial curve]

**Q.** How did the Potency turn out when CC1Cc2ccccc2N1S(=O)(=O)c1ccc2c(c1)n(C)c(=O)c(=O)n2C (configuration not stated) was run?
**A.** inactive

**Q.** For COc1ccc(-c2csc(N3CCC(c4ccccc4)C3)n2)cc1 (configuration not stated), which Potency is on record?
**A.** inactive

**Q.** With Cc1ccc(OC(=O)C(F)(F)F)c2c1NCCC2 as the compound, how does the Potency read?
**A.** active: 31.6 µM

**Q.** CCCOc1ccc(C(=O)CCNc2cccc(Cl)c2)cc1 was tested. Which Potency did it give?
**A.** inconclusive [inhibitor, full curve, poor fit]

**Q.** Which Potency does the source give for COc1ccc(C2/C=C\CN(CC(C)C)CC(=O)N2Cc2ccc(F)cc2)cc1 (configuration not stated) here?
**A.** inconclusive [inhibitor, single point]

**Q.** For O=C(N/N=C/c1cc2c(cc1Cl)OCO2)c1cc(-c2ccccc2)n[nH]1, which Potency is on record?
**A.** inconclusive [inhibitor, full curve]

**Q.** How did the Potency turn out when Cc1cc(C(=O)N/N=C/c2sc(N3CCOCC3)nc2-c2ccccc2)c(C)o1 was run?
**A.** inconclusive [inhibitor, partial curve]

**Q.** With CCCN1C(=O)c2ccc(C(=O)Nc3cc(C)ccc3O)cc2C1=O as the compound, how does the Potency read?
**A.** inconclusive [inhibitor, single point]

**Q.** How did the Potency turn out when CC(C)Oc1ccc(/C(O)=C2/C(=O)C(=O)N(CCN3CCNCC3)C2c2ccc(C(C)C)cc2)cc1 (configuration not stated) was run?
**A.** inconclusive [inhibitor, partial curve]

**Q.** CCN(Cc1ccccc1)S(=O)(=O)c1cc(Br)cc2c1N(C(=O)C1CC1)CC2 was tested. Which Potency did it give?
**A.** inactive

**Q.** Which Potency does the source give for O=C(NCc1ccc2[nH]c3c(c2c1)CCCC3)N1CCOCC1 here?
**A.** active: 35.5 µM

**Q.** For Cc1cc(SC#N)cc(C)c1NC(=O)CCl, which Potency is on record?
**A.** active: 14.1 µM

**Q.** For CCc1ccccc1NC(=O)c1ccc(S(=O)(=O)NCC2CCCO2)cc1 (configuration not stated), which Potency is on record?
**A.** inactive

**Q.** With COc1ccc(-c2nc(CS(=O)CC(=O)N3CCC4(CC3)OCCO4)c(C)o2)cc1 (configuration not stated) as the compound, how does the Potency read?
**A.** inconclusive [inhibitor, full curve]

**Q.** Which Potency does the source give for Cc1ccc(CSc2nnc(SCC(=O)N/N=C/C=C/c3ccco3)s2)cc1 here?
**A.** inconclusive [inhibitor, partial curve]

**Q.** With COc1ccc(C2/C(=C(/O)c3ccccc3)C(=O)C(=O)N2CCN2CCOCC2)c(OC)c1 (configuration not stated) as the compound, how does the Potency read?
**A.** inconclusive [inhibitor, partial curve]

**Q.** How did the Potency turn out when COC(=O)c1sc(S(=O)(=O)NCc2ccccc2)c(C(=O)OC)c1C was run?
**A.** inconclusive [inhibitor, single point]

**Q.** CN(Cc1ccccc1)C1CC(=O)N(c2ccc(C(=O)O)cc2)C1=O (configuration not stated) was tested. Which Potency did it give?
**A.** active: 20 µM

**Q.** With Cc1cccc(NC(=S)NCCc2ccccc2)n1 as the compound, how does the Potency read?
**A.** inconclusive [inhibitor, partial curve, poor fit]

**Q.** Which Potency does the source give for COc1ccc(C(=O)Nn2c(C)ccc2C)cc1OC here?
**A.** inconclusive [inhibitor, partial curve]

**Q.** O=C(Nc1cccc(Oc2c(F)c(F)c(F)c(F)c2F)c1)N1C[C@@H]2C[C@@H](C1)c1cccc(=O)n1C2 was tested. Which Potency did it give?
**A.** inconclusive [inhibitor, partial curve]

**Q.** How did the Potency turn out when Cc1ccc(NC(=O)Cc2nc(CCl)cs2)cc1 was run?
**A.** inconclusive [inhibitor, partial curve]

**Q.** With COc1ccc(-c2noc3c2-c2nc(-c4c(F)cccc4F)sc2CC3)cc1 as the compound, how does the Potency read?
**A.** inconclusive [inhibitor, partial curve]

**Q.** For COC(=O)c1ccc(=O)n(Cc2ccco2)c1, which Potency is on record?
**A.** inconclusive [inhibitor, partial curve]

**Q.** How did the Potency turn out when COc1ccccc1C(CCNCc1ccc(N(C)C)cc1)c1ccc(OC(C)C)cc1 (configuration not stated) was run?
**A.** inactive

**Q.** With CN(C)/C=N/c1ncn(-c2ncc(C(F)(F)F)cc2Cl)n1 as the compound, how does the Potency read?
**A.** inactive

**Q.** Which Potency does the source give for c1ccc(C2=Nc3ccccc3OC2)cc1 here?
**A.** active: 50.1 µM

**Q.** With CC1CCN(c2ccc(-c3cccc(NS(=O)(=O)c4ccc(F)cc4F)c3)nn2)CC1 as the compound, how does the Potency read?
**A.** inactive

**Q.** For COc1ccc(OC)c(NC(=O)CCOc2cccc(C)c2)c1, which Potency is on record?
**A.** inactive

**Q.** For COc1ccccc1CNC(=O)C(C)NS(=O)(=O)c1ccccc1 (configuration not stated), which Potency is on record?
**A.** inconclusive [inhibitor, partial curve, poor fit]

**Q.** How did the Potency turn out when COc1cccc(OC)c1OCCNCCO was run?
**A.** inconclusive [inhibitor, partial curve, poor fit]

**Q.** For COC(=O)C1=C(O)/C(=C\c2ccc(OCC(=O)Nc3ccc(OC)cc3)cc2)N=C1C, which Potency is on record?
**A.** inactive

**Q.** For CCOC(=O)c1cn[nH]c1NC(=S)Nc1ccccc1, which Potency is on record?
**A.** inconclusive [inhibitor, partial curve]

**Q.** For O=C(CCCN1C(=O)c2ccccc2C1=O)Nc1c2c(nc3c1CCC3)CCC2, which Potency is on record?
**A.** inconclusive [inhibitor, partial curve]

**Q.** How did the Potency turn out when Cc1ccc(/C=N/NC(=S)N2CCOCC2)cc1 was run?
**A.** inconclusive [inhibitor, single point]
